According to publication PMC12136788:
The other results are listed elsewhere or left out.

B1: chr10:123051058:123051159:+|CDS|ENSG00000196177|unk|FALSE|unique (ssRNA)
RNA: GGGAGUUCUACAGUCCGACGAUCCAAGUGGCUCACGUGGCCACCCAGCUGGAAGCUGCAAGAUUACUAACAUACAAUGCUGCUAGGCUUUUAGAAGCUGGAAAGCCAUUCAUAAAAGAAGCGUCAAUGGCCAAAUACUAUGCACAACAGAGGAUUGAGCAUCA
B2: ENSG00000198589:be:win_1551|CDS|ENSG00000198589|bound_else_gene|NA|bound_elsewhere_windowed (ssRNA)
RNA: GGGAGUUCUACAGUCCGACGAUCACAGAUGCUUGCCUGUAAGGGCUUCUUGGUAAUAGGAUAUAGCCUUGAAAAGUCUUCCAAAUCUCAUGUUAGCAGAGCAGUACUUGAACUUUGCCUUGCAUUUUCAAAAUAUCUGAGUAACAACAGAGGAUUGAGCAUCA
B3: chr11:92354873:92354974:+|CDS|ENSG00000165323|unk|total|mutant (ssRNA)
RNA: GGGAGUUCUACAGUCCGACGAUCGUCACUCUUAAAGUUUUUUCCGAUGAUGUCAAUGACUGCUCCCCAGCUUUCAUUCCCAGCCGCUACCGUGUGAAGGUUCUUGAAGAUCUCCCUGUUGGCACUGUCAUUGCUUGGCUUGAGCAACAGAGGAUUGAGCAUCA
B4: ENSG00000070961:be:win_701|CDS|ENSG00000070961|bound_else_gene|NA|bound_elsewhere_windowed (ssRNA)
RNA: GGGAGUUCUACAGUCCGACGAUCACGAUCUUAAAAUUGAUGAAAGCUCAUUGACUGGUGAAUCAGAUCAUGUUAAAAAGUCUUUAGAUAAGGAUCCCUUACUUCUAUCAGGUACUCAUGUAAUGGAAGGCUCUGGAAGAAUGGCAACAGAGGAUUGAGCAUCA
B5: chr1:15430058:15430159:+|3pUTR|ENSG00000142634|msi1|FALSE|unique (ssRNA)
RNA: GGGAGUUCUACAGUCCGACGAUCCCUGGAAGCUACGCGGACUUGCAGAGGUUUUAUUUUUUGGCCUUAGAAUCUGCAGAAAUUAGGAGGCACCGAGCCCAGCGCAGCAGCCUCGGACCCGGAUUGCGUUUGCCUUAGCGGAUACAACAGAGGAUUGAGCAUCA
B6: chr5:144162273:144162391:-|CDS|ENSG00000145817|unk|total|mutant (ssRNA)
RNA: GGGAGUUCUACAGUCCGACGAUCCCCACCGGCUGGCAAAAUCCAGUUUGGCUAUGUAUACGGGAUCAGUGCAAUUGGAUGUCCCGGAAUGUUUUGUUUAUUAAACUUAAUGAGUAUGACAGGUGUUUCAUUUGGUUGUGUGGCCAACAGAGGAUUGAGCAUCA
B7: chr4:42087128:42087229:+|3pUTR|ENSG00000014824|msi1|total|mutant (ssRNA)
RNA: GGGAGUUCUACAGUCCGACGAUCAUUUUGUAUAAUACCGUUCAUACUGUGUCUGUGAGUUUCUUCAGUUACAAAUGGGCAUUCCGUACCGUUAUAUUGACUAUAACAUGUAAGUAAACCGCUUUCUACUGACCCUAAGUUAUCCAACAGAGGAUUGAGCAUCA
B8: chrX:115010634:115010735:-|CDS|ENSG00000123496|msi1|total|mutant (ssRNA)
RNA: GGGAGUUCUACAGUCCGACGAUCUGGAUCAUCAGAGAACAAGCCUAUCAGAUCCAGUUAUUUCACUUUUCAGCUUCAAAAUACCGGUGAUGUAAACCAACAAACAACUUCAAAUUCAUUGUUUCCCGUUCCGGCCAUUUACAACAACAGAGGAUUGAGCAUCA
B9: chr2:110123602:110123703:-|3pUTR|ENSG00000144061|unk|total|mutant (ssRNA)
RNA: GGGAGUUCUACAGUCCGACGAUCAUCCUCCACGAUUACGUGAAUAAAAUGAUGGAACCAAAAAUCACUGUCACUUUACAACUCCGGUUUUACUCUUUUCUUUCUACAGACCAUAUUUUUAAAGAAAUGUUUAUACAAUAAUUUCAACAGAGGAUUGAGCAUCA
B10: chr18:68676332:68676434:-|3pUTR|ENSG00000166479|msi1_unk|FALSE|overlapping (ssRNA)
RNA: GGGAGUUCUACAGUCCGACGAUCAUCAAGAUUAUGAGGUUAAAAAUAAUGUGGUUUUAUAUAGCAUAGUGGUUUUAUUUUGUUAGUUAUUUUUAAAGGAGAAGAAAUGUUACUUUUUAACUUUAUACUCAGUUGCAUUAUCAUCAACAGAGGAUUGAGCAUCA
B11: chr1:113128187:113128288:+|3pUTR|ENSG00000198799|unk|FALSE|unique (ssRNA)
RNA: GGGAGUUCUACAGUCCGACGAUCUCAUACUUAUUUUCAAUCCUAAGUGUUCUCCCAUGGGCAGCAGCACUUCUUGAGCUGUUUAGUACUGCCACACCUUUUUAUGUCUUUACUAUGUCAGCCUCUGAUCAUUUUCACUUUGAACAACAGAGGAUUGAGCAUCA
B12: chrX:8790794:8791172:-|three_prime_utr|ENSG00000183304|control|control|control (ssRNA)
RNA: GGGAGUUCUACAGUCCGACGAUCCAACUUGAGCUACAGUAAACUACAUGACAGUGUUUUGAUAAUUGUUGUAUAAAUCGGUAUAGCUCCUCUGUCACUUGUCUGUUAAAUGCCAGACCUCGUUUCUAUGAUCUGUUGAAUGAACAACAGAGGAUUGAGCAUCA
B13: chr6:36925625:36925726:+|3pUTR|ENSG00000198663|msi1|total|mutant (ssRNA)
RNA: GGGAGUUCUACAGUCCGACGAUCACUUCUCAAGUUAAUUUUGAUAAGCAGAAUCUACUACUGGCCAGAGCGACAGGAGUGGCCCGGGGUUGCCAGCCAGUCCCUUUCUGAUGAUCAAGGCCCUGCACAGCAGGAUGCCACAGGCAACAGAGGAUUGAGCAUCA
B14: chr15:99139316:99139576:-|CDS|ENSG00000103852|control|control|control (ssRNA)
RNA: GGGAGUUCUACAGUCCGACGAUCCUCUCAUUCAAGGGAGACCUUAGUUUCCUGCUCUCAGCGACACUUCCAUAGCCUCAUGAUAGCUGCUUGGUGUUCUACAGUGUCUCCAGAUCCAGACCCUCUUAUAUGGACCGCAGGACACAACAGAGGAUUGAGCAUCA

Molecular target: MSI1 full-length (mouse, UniProt Q61474 1-362)
UniProt Q61474, sequence (Q61474 whole entry): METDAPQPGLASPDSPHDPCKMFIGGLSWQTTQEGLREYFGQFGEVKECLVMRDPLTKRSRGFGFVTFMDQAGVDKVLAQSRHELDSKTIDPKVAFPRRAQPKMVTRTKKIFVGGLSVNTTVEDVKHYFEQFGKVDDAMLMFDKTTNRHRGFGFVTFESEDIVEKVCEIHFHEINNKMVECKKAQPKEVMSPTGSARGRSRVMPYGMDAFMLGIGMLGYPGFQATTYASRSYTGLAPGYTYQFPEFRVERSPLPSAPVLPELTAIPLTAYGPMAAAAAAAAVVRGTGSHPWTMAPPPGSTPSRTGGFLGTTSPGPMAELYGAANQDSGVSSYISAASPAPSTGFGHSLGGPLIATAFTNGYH
Test: nsRBNS (natural sequence RNA bind-n-seq); RBNS binding buffer (assumed for nsRBNS): 25 mM Tris pH 7.5, 150 mM KCl, 3 mM MgCl2, 0.01% Triton X-100, 500 ug/ml BSA, 20 U/ml SUPERase-In, 4 C; UNK is unkempt and MSI1 is Musashi-1; names of the RNAs are library labels; protein concentration not given here; high values mean tight binding

Binder | binding signal [enrichment R]
B1 | 0.368
B2 | 0.737
B3 | 0.763
B4 | 0.383
B5 | 0.989
B6 | 0.386
B7 | 0.454
B8 | 0.421
B9 | 1.92
B10 | 69.1
B11 | 0.557
B12 | 0.5
B13 | 0.463
B14 | 0.715
